# According to the supplement of paper PMC3334620:
# The full ranking holds about 33,000 sequences; the median of “E-score (-0.5 to 0.5)” is about -0.032, and the highest 2% start at about 0.36. Some of the results follow.
# Molecular target: T1, Sko1 (UniProt Q02100)
# T1 sequence: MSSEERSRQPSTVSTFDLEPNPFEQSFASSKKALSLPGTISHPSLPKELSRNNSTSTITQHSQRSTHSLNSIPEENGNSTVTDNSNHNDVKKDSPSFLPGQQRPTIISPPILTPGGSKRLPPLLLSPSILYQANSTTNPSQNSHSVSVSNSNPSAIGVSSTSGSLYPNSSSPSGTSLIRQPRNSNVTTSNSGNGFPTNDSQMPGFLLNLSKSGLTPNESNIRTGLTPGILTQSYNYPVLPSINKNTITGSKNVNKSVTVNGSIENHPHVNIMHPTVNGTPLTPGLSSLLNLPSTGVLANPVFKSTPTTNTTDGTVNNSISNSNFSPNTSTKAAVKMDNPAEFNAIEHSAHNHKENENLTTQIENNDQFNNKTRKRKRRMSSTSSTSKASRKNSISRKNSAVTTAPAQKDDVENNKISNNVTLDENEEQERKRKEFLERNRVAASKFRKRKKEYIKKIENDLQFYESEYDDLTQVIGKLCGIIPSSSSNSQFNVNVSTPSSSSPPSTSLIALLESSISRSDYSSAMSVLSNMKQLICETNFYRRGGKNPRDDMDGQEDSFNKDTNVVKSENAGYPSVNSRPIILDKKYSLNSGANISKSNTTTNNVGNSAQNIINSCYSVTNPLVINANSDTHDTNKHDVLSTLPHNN
# Assay: PBM E-score (8-mer binding enrichment) (E-score (-0.5 to 0.5)); higher = stronger / more preferred TF binding; most listed sequences are background and not binding sites
# Conditions: protein concentration: 200 nM; construct: GST-full length
# Outline: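 Universal all-10-mer Agilent arrays, fresh or stripped once, were converted to double-stranded form by primer extension. GST-tagged yeast transcription factors from PURExpress in vitro transcription/translation, full-length or DNA-binding domain only, were applied at about 100-200 nM and detected with fluorescent anti-GST. After masliner normalisation, the Universal PBM Analysis Suite scored each ungapped eight-base word together with its reverse complement by E-score.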
row,Sequence,PBM E-score
1,ACGAAATA,0.292
2,CAGTCCGA,-0.0487
3,CCTGCCCA,-0.121
4,CCGTGGAG,-0.359
5,CATGCGAA,0.0815
6,CTGTAAAG,-0.184
7,CCCTCATC,-0.29
8,CCTCGCAG,-0.247
9,ACGCCAAT,0.21
10,ATTGTGAG,-0.058
11,AATAGACG,0.19
12,CCGCGGGC,-0.257
13,CTAAATGA,0.148
14,AAGCCCTC,-0.252
15,TCATAAAA,0.175
16,ACACATAC,0.124
17,AAAGTGGT,-0.118
18,ATCAAGCC,0.0831
19,CAAAACGG,0.0476
20,GCTCTTCC,-0.105
21,AAACCGAC,-0.0582
22,ATCTCTGA,0.0221
23,CCTAACCG,-0.0687
24,ATTCATCG,-0.0686
25,CGTGCCGC,0.117

row,Sequence,PBM E-score
1,ACACTGAG,-0.066
2,ACTTGAAG,0.0742
3,CAGAAACA,0.0257
4,GCAAACTA,0.11
5,AATCCGAT,0.101
6,CCAGTGTC,-0.0627
7,GGACTGAA,-0.156
8,ACACCTAA,0.101
9,AGCGGTTC,-0.043
10,ACGGAATG,-0.00815
11,ACAGATGA,0.188
12,AACACCCT,-0.108
13,AAACCAGA,-0.0291
14,ACGGGGAA,-0.0141
15,AGCGATGC,-0.163
16,ATTGGTAA,0.0745
17,GCGTGGCC,-0.148
18,AGAATCAT,0.0958
19,CGGCCTTA,-0.0725
20,ACAAGTGC,-0.0489
21,CTCGAGCA,-0.0339
22,CTTCATCC,-0.23
23,TTAATCAA,0.178
24,CCGAGACC,-0.224
25,GTACTATA,0.0801

row,Sequence,PBM E-score
1,CAGGAAAC,-0.037
2,AACTTACG,0.408
3,AAGTTGAC,0.102
4,CATCACCC,0.0865
5,ACAGCGCT,-0.0271
6,GGAGCAAC,-0.138
7,GTGAAAAC,-0.0336
8,AGCGAAGC,-0.0755
9,CAAAAGCA,-0.132
10,GGGAAACC,-0.15
11,AAATCCGG,-0.0997
12,GAACCGAA,0.204
13,CGGGGCTC,-0.336
14,AGGTAAAT,0.131
15,GGTGATAA,-0.0465
16,CGAGGGGA,-0.0949
17,CGTTAATC,0.168
18,CTAAACAA,-0.0909
19,ATCCCCCG,-0.282
20,ACCAACCT,-0.0573
21,GCTATTAC,0.268
22,GGATGCCA,-0.24
23,GGTCAGTA,-0.0692
24,GGGAATAC,0.0701
25,ACAGTCTA,0.0251

row,Sequence,PBM E-score
1,CCACTTGA,-0.0716
2,TAGCACTA,-0.0604
3,ACCTGCTC,-0.157
4,CCCCACTC,-0.334
5,AGCTGGCG,-0.16
6,TAGAGTGA,-0.0201
7,CATGTAAC,0.0916
8,AGACTAAT,-0.121
9,ACCAGATA,0.0936
10,CACCAATA,0.0102
11,GAGCCGTA,-0.0668
12,GCAATTCA,-0.0438
13,CGCACGTC,0.333
14,CATTTGGG,0.0189
15,AAGTCTAT,-0.0881
16,CAAAGGAA,0.0737
17,CGCTATTA,0.0982
18,AGGTATCG,0.0527
19,CTGGGGTC,-0.155
20,GACATCTC,-0.104
21,AAGAGGTA,-0.179
22,TATGCGAA,0.126
23,CGTTGTAG,0.0645
24,AACGCTTA,0.0093
25,CTTAGGCA,-0.149

row,Sequence,PBM E-score
1,ACCGTCAC,0.0631
2,CTTGGCTA,-0.101
3,CCACCCTC,-0.104
4,CCCAGGAA,-0.18
5,ACGTTGCA,0.307
6,GAAGACGA,0.0858
7,ATTCGAAT,0.0969
8,ATGCCGAA,-0.121
9,ACTATTTG,0.0702
10,AGTGGACG,0.261
11,GACCCCGC,-0.206
12,AACCTGTA,-0.057
13,GTAACTAC,0.26
14,AAATCTCT,0.0923
15,CGGAGGCA,-0.163
16,CGACAGAC,-0.083
17,CGAAGCCA,-0.11
18,AGGTACAA,0.00931
19,ATTCCGAC,-0.0645
20,GCGCCTTA,0.0579
21,AACCACAA,-0.0239
22,AGCAATTA,0.0652
23,AATGACTG,0.0525
24,AACTGAGG,-0.0359
25,GGTGAACA,-0.153

row,Sequence,PBM E-score
1,ACGTTCCA,0.16
2,ACGCAATC,0.411
3,CCTGGACG,-0.154
4,AACTAGGT,-0.0107
5,CTATCAGC,0.0193
6,CCATTGAA,0.016
7,GGATCGTA,-0.0269
8,GTCGGCTA,-0.00791
9,GAGGGATA,-0.209
10,CTAACCCC,-0.289
11,GGATCTAA,-0.0907
12,ATTACGTG,0.487
13,CGCTTACG,0.318
14,ACACTCCA,0.0869
15,AGGCGTGG,-0.273
16,AACCAGTC,-0.111
17,CCAAGCAG,-0.195
18,AACTAGCG,-0.0716
19,AATCTGTG,-0.0631
20,CTCATGAC,0.285
21,AGACGGCG,-0.091
22,AGTCTTTA,0.175
23,AGTATCAT,0.139
24,TACGGGCA,0.0236
25,ACGCACAT,0.387

row,Sequence,PBM E-score
1,ATAGATAG,0.107
2,CTCGCGAC,-0.00079
3,CCAAGACA,0.00227
4,CTTGACTA,-0.0603
5,AGCTGGAA,-0.228
6,ATTCCTCA,0.0613
7,ACACGTCA,0.489
8,CCGAAACA,0.00154
9,ACACATTA,0.123
10,ACGCATAA,0.298
11,AGCCCTGG,-0.344
12,GGCCCTCA,-0.341
13,GCCACTAC,-0.0738
14,GGCACGTA,0.395
15,AGTCGGAG,-0.14
16,GCAACGGC,-0.213
17,CTTTCGAC,-0.106
18,ATACGGGG,-0.128
19,ATCAGAAC,0.103
20,AAACTGGC,-0.0811
21,AGCTGGCA,-0.145
22,AGGGGGTA,-0.328
23,CCTTGCGA,-0.1
24,ATTATACC,0.187
25,ATATTGCA,0.0677

row,Sequence,PBM E-score
1,TAGCCAAA,0.0481
2,TGACCCAA,0.0778
3,CTCTAGTC,-0.256
4,AGTGCATG,0.0503
5,GCCTTCAA,-0.252
6,ATATCGCC,-0.0736
7,CAACCGTC,-0.23
8,ACTTTCAC,0.123
9,CCTAGCGC,-0.14
10,AACACACT,0.125
11,ACAAAGCT,-0.0764
12,AATAGTAG,0.178
13,GTTTGATA,0.0708
14,CGCAATTA,0.325
15,AAAGTACG,0.289
16,GTCATACA,0.324
17,AACACTTA,0.172
18,GCGAAAAC,-0.149
19,CATGGATA,-0.0358
20,AATAACGT,0.426
21,ATAACAGG,-0.0069
22,CGGGAGTC,-0.258
23,CGTTAACA,0.132
24,GAGCTAGC,-0.097
25,AAGATGAG,-0.0442

row,Sequence,PBM E-score
1,CTCGCTAC,-0.088
2,CCAAGGGG,-0.175
3,GATAGTGA,0.162
4,GAGCCATA,-0.147
5,AAACCATA,0.089
6,AAGAGCAC,0.122
7,CCACGCGA,0.00647
8,CGTGTCGC,0.131
9,ACAGTCAG,0.0824
10,CACCAACC,-0.0383
11,ACAATTAA,0.235
12,AGAAGCGA,0.025
13,CAATCAGA,0.0708
14,CACACTGG,-0.283
15,AATTGAAA,0.293
16,TGTAGTAA,0.182
17,CATCATTC,0.218
18,ATGTGAAG,0.205
19,GATAATCA,0.0912
